The full ranking holds about 33,000 sequences; the median of “E-score (-0.5 to 0.5)” is about -0.043, and the highest 2% start at about 0.37. Some of the results follow.
Molecular target: T1, Upc2 (UniProt Q12151)
T1 sequence: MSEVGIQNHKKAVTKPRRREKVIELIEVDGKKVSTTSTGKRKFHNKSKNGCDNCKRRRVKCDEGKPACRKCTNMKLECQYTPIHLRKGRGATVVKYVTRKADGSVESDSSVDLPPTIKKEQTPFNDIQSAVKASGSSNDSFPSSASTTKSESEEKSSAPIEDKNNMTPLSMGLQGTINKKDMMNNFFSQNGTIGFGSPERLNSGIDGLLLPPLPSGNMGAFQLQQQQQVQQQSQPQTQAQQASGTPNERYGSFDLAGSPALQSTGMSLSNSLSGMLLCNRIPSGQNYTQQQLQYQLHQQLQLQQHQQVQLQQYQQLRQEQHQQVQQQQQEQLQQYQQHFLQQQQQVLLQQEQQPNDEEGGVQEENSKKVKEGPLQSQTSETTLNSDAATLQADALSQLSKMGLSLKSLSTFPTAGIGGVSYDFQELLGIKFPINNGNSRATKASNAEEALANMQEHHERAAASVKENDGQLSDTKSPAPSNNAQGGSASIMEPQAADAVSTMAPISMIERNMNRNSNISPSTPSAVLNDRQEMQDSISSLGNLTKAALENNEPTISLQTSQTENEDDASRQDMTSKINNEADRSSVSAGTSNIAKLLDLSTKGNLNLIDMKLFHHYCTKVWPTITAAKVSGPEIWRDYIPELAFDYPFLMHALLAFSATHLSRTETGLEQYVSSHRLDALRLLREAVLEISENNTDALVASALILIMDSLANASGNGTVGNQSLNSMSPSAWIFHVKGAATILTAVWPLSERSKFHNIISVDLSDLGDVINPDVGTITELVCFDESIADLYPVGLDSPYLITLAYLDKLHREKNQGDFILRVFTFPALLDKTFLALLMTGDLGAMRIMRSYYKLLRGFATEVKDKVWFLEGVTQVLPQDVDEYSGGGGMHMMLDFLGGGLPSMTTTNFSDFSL
Assay: PBM E-score (8-mer binding enrichment) (E-score (-0.5 to 0.5)); higher = stronger / more preferred TF binding; most listed sequences are background and not binding sites
Conditions: protein concentration: 200 nM; construct: GST-full length
Summary of the method: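 Universal all-10-mer Agilent arrays, double-stranded by primer extension on fresh or once-stripped slides, were probed with about 100-200 nM GST-tagged yeast transcription factors made by PURExpress. Fluorescent anti-GST detected bound protein, and masliner normalised the scans. E-scores from the Universal PBM Analysis Suite were given to each ungapped eight-base word pooled with its reverse complement.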

| Sequence | PBM E-score |
| --- | --- |
| ACCCCAGG | -0.29 |
| CTGGAACC | -0.0119 |
| AACCAGCT | -0.0737 |
| AGTCAGAT | -0.132 |
| TCTCGAGA | -0.0667 |
| AGGTCTAT | 0.0364 |
| AGATCAAT | -0.087 |
| GCTTATAA | 0.11 |
| ACCGCAGA | -0.151 |
| ACATGTTA | 0.119 |
| CTAGTATC | -0.0228 |
| AACATACT | 0.0309 |
| TAACACCA | 0.0919 |
| CATAAGCA | -0.183 |
| CTATATGC | -0.124 |
| CGACGCTA | 0.237 |
| AGCCGAGG | 0.0685 |
| AATTTGAA | 0.165 |
| GATCTAGC | 0.0193 |
| CCGATAAG | -0.103 |
| CCCGTGCA | -0.116 |
| CCTCAGAG | -0.284 |
| AGCCTTAG | -0.165 |
| AGGTGTGC | -0.195 |
| ACATTATG | 0.169 |

| Sequence | PBM E-score |
| --- | --- |
| GATTGAAA | -0.00337 |
| AAGGCTGG | -0.303 |
| CCCAAAAG | -0.0866 |
| CTCACGAC | -0.146 |
| AGTGGAGA | -0.159 |
| ATAGTGGC | -0.0297 |
| ATAGGGGG | -0.16 |
| ACGACAGT | 0.37 |
| AATACTCA | -0.0838 |
| TACGCGCA | 0.279 |
| AGTCTGGC | -0.157 |
| CGAACATC | 0.136 |
| GTCCCAGA | 0.0257 |
| CCCGCGTA | 0.141 |
| CTCGGTAC | 0.242 |
| TACCGGAA | -0.116 |
| CCCGACAA | 0.0724 |
| CTAGGACC | -0.202 |
| AGTAGAGA | -0.103 |
| GAGCGGGC | -0.0683 |
| AGGATGAA | -0.116 |
| ATGGGCAC | -0.111 |
| GCGCTCAC | -0.0386 |
| ACAATGGG | -0.00604 |
| AGTATAAA | 0.238 |

| Sequence | PBM E-score |
| --- | --- |
| CGTCTGTA | 0.0994 |
| GAAACCCA | -0.0512 |
| CTTAACAA | -0.00049 |
| AGTCCCGG | -0.235 |
| AAAGCTCA | -0.0475 |
| AGACAATC | -0.134 |
| ACAGATCG | -0.0319 |
| CTGCACGC | -0.268 |
| AAGCCTAG | 0.0183 |
| TGAGACCA | -0.195 |
| ATCTGTTG | -0.199 |
| AGCTGCGG | -0.00084 |
| GCGCTATA | 0.152 |
| CACGTTAA | 0.131 |
| CGTAGGAC | 0.0465 |
| GACACAAA | -0.113 |
| CCTTTCTA | -0.0882 |
| ACAAGAAA | -0.0102 |
| ACCAGGAC | -0.0418 |
| AGGCGAGA | -0.153 |
| AGAATGAG | -0.212 |
| CCACGTCG | 0.0289 |
| AGAATCAC | -0.166 |
| GCTTACTA | -0.0799 |
| ACAACGGG | 0.0146 |

| Sequence | PBM E-score |
| --- | --- |
| CGACTAGA | -0.0944 |
| CCAGGCTA | -0.185 |
| ACTCACCG | -0.0668 |
| CGGAATCC | -0.229 |
| CTCGTGCA | 0.0879 |
| CGCGATAC | 0.267 |
| AATCCATA | 0.0162 |
| CATTTGAC | -0.304 |
| CCGACGGA | -0.0042 |
| GTAGGACA | -0.0315 |
| CTTGAGCA | -0.197 |
| ACGGCAAT | 0.147 |
| GCGACTCA | -0.0769 |
| GGAACAAA | 0.139 |
| GAAAATTA | 0.0345 |
| CAGGCTCG | 0.153 |
| TCACGTGA | 0.0354 |
| GTCCCAAA | 0.0572 |
| CTAACTAC | -0.133 |
| CCTACATC | -0.233 |
| GCTCATCA | -0.195 |
| ACAGACAC | -0.0608 |
| CGTGCTTA | -0.0674 |
| ACTATTCT | -0.114 |
| GCCATCCC | -0.187 |

| Sequence | PBM E-score |
| --- | --- |
| CTCGCGTC | 0.109 |
| CAATATAC | 0.278 |
| AGTTGACA | -0.149 |
| ACCGCATA | 0.149 |
| CCGGCGTC | -0.00021 |
| ACACCGAT | -0.105 |
| TGAGCAAA | -0.0755 |
| AGAACGCA | 0.014 |
| TCGATCAA | -0.0204 |
| CAAGCTGC | -0.149 |
| CCAAGGAC | -0.247 |
| CAATAACA | -0.225 |
| AGTGCTAC | -0.0322 |
| AGAATTGC | -0.0676 |
| ATGTCCGC | -0.0951 |
| CTGTCTGA | -0.241 |
| TCTGTCAA | -0.0976 |
| CTCGTATC | 0.473 |
| CGGTTTCC | 0.00269 |
| CAACAGTC | -0.262 |
| AATCACGA | -0.0445 |
| CCCTAGGA | -0.27 |
| AGGTACAT | -0.102 |
| TTAGATAA | 0.0648 |
| CGTGCATA | -0.0557 |

| Sequence | PBM E-score |
| --- | --- |
| ATAAGGTG | -0.0317 |
| GACATCGC | 0.126 |
| ATGGTCCA | -0.166 |
| TCGGACAA | 0.126 |
| GAATTATC | 0.127 |
| CACAAAAC | 0.0778 |
| CCCCATCC | 0.0739 |
| TATACTCA | 0.207 |
| CCGAAGAA | -0.127 |
| ACGAACCC | 0.301 |
| GCCAAACC | -0.137 |
| GTGAGACA | -0.221 |
| ATCCTATC | -0.186 |
| ATAGGAAA | -0.00053 |
| AGTCCTTC | -0.162 |
| ATAATTTC | -0.0201 |
| GCTCCTCA | -0.203 |
| AGTCAGTA | 0.117 |
| CGATGCCG | -0.0899 |
| CCCATCCA | -0.0182 |
| CAAAGCAA | 0.0363 |
| CGAGCGGC | 0.13 |
| GAGCTAAC | 0.00917 |
| AGTCAGTC | -0.0718 |
| AATTCCGG | -0.124 |

| Sequence | PBM E-score |
| --- | --- |
| ACCCCAAT | -0.139 |
| GCCGGCCA | -0.205 |
| ACTCAACC | -0.0568 |
| GTAGTACA | -0.0187 |
| ATCACGAT | -0.122 |
| ACGCTAAG | 0.0293 |
| GGACAGGA | -0.0824 |
| ATCGAAGG | 0.0344 |
| GTGTGAAA | -0.143 |
| AACTTGAG | -0.0698 |
| ATGTGCTA | -0.0598 |
| AGTAACTC | -0.0313 |
| GTCCCACA | -0.0951 |
| CATCCACA | -0.0464 |
| CGACCATC | 0.123 |
| CTATCTGA | -0.0219 |
| GCCGTCGC | 0.142 |
| ACGCTTTA | 0.201 |
| TAATCTGA | -0.124 |
| CGATTTCC | 0.104 |
| CAGGTCAC | -0.333 |
| GGCAGATA | 0.00284 |
